From PubChem BioAssay AID624202 (National Center for Advancing Translational Sciences (NCATS), 2012)
Several values for one entry are separate records, joined by “and”; a condition that tells them apart may be missing. Equal values may be shown once. The campaign covered roughly 380,000 compounds. About 4,000 (1.1%) were called active. Inconclusive means that the source gave no clear call. Such entries were picked first, then a sample of the others. Calls follow the shape of the dose curve; as a rule, active = well fitted activation curve with a large enough effect; inconclusive = small, poorly fitted or top-dose-only effect; inactive = no such curve, though single readings can be large or run the other way. Potencies of inconclusive entries are doubtful fits and often do not repeat.

Assay: qHTS Assay to Identify Small Molecule Activators of BRCA1 Expression; also: nearly all actives have a fitted effect of over 80% in size
Settings: MCF7-BRCA1-FFLuc reporter, luminescence, 48 h; activation: at 46.1 µM (top of the series), scaled: vehicle 0%, 10 µM genistein 100% unless noted
Text: Functionally, BRCA1 has been implicated in a wide array of cellular activities, including DNA damage repair, cell-cycle checkpoint control, growth inhibition, apoptosis, transcriptional regulation, chromatin remodeling, protein ubiquitylation, and mammary stem cell self-renewal and differentiation. Reduction in BRCA1 levels is associated with an increase in tumor growth and resistance to anti-estrogenic agents, such as tamoxifen, while an increase in BRCA1 expression leads to cell growth arrest and apoptosis. […] The frequent loss of BRCA1 expression in invasive breast cancers in the absence of somatic mutation has been attributed to numerous mechanisms, including hypermethylation of the BRCA1 promoter, exaggerated ubiquitylation of BRCA1 protein, and improper intracellular localization. […] Basal-like breast cancers (BLBCs) are associated with an aggressive clinical course, resistance to chemotherapy, and typically lack expression of estrogen receptor (ER), progesterone receptor (PR), and epidermal growth factor receptor 2 (HER2). BLBCs account for 10-17% of all breast cancers, have few therapeutic options, and are considered the biggest unmet need in the treatment of breast cancer. Conversely, tumors which maintain expression of functional BRCA1 are almost uniformly luminal type cancers, and are accordingly associated with more indolent clinical courses, responsiveness to endocrine therapies, and improved survival.
As such, it is possible that an increase in BRCA1 expression would enable cellular differentiation and restore tumor suppressor function, resulting in delayed tumor growth and less aggressive, more treatable breast cancers. The long term goal of this proposal is to develop a novel prevention or therapeutic agent for breast cancer patients. To accomplish this goal, the overall objective of this proposal is to access the resources provided by the NIH Molecular Libraries Roadmap Initiative and the Molecular Libraries Probe Production Centers Network (MLPCN) to discover and develop new chemical activator probes that will increase BRCA1 expression and function.
NIH Molecular Libraries Probe Production Network [MLPCN]
NIH Chemical Genomics Center [NCGC]
PI Name: Lisa Harlan-Williams, University of Kansas Medical Center
5microl of MCF7-BRCA1-FFLuc cell suspension (400 cells/microl in phenol-red free MEM) are dispensed into Greiner white solid bottom 1536-well assay plates, yielding a final well density of 2000 cells/well. Plates are incubated for 2 hours at 37 degrees C in 5% humidified CO2 to allow cell attachment. Compounds are then transferred via Kalypsys pin tool equipped with 1536-pin array (10nl slotted pins, V&P Scientific, San Diego, CA). The plates are then incubated at 37 degrees C in 5% humidified CO2 for 48 hours. The NCGC in-house luciferase substrate reagent, Buglite, is then added (2.5microl) and plates incubated for 15 minutes, before being transferred to a ViewLux high-throughput CCD imager (PerkinElmer) wherein single end-point measurements of luminescence are acquired using a clear filter. The positive control compound, genistein, will be pinned into dedicated control columns on each plate, including a 16-point 1:3 titration in duplicate, as well as a 10microM maximum activation control, allowing for the normalization of screening activity. DMSO will be pinned into a separate column as a negative control.
All screening operations will be performed on a fully integrated robotic system (Kalypsys, San Diego, CA) containing one RX-130 and two RX-90 anthropomorphic robotic arms (Staubli, Duncan, SC). Library plates will be screened starting from the lowest and proceeding to the highest concentration. Vehicle-only plates, with DMSO being pin-transferred to columns 5-48, will be inserted uniformly at the beginning and the end of each library in order to monitor and record any shifts in the background, which can be affected by reagent dispensers or loss in enzyme activity over time. […]
Potency is read from the fitted curve at half-maximal effect; tags tell the direction and shape of the fitted curve.

Compound | Potency | activation
O=C(Cc1ccccc1)Nc1ccc(NC(=O)c2ccco2)nc1 | active: 5.62 µM | –
CC(C)(C)c1cc(/C=N/O)cc(C(C)(C)C)c1O | – | inactive: -15.7%
O=c1[nH]cnc2scc(C3COc4ccccc4O3)c12 (configuration not stated) | inconclusive: 25.1 µM [activator, single point] | –
COc1ccc(OCc2cc(C(=O)N(C)CCC3CCOCC3)no2)c(Cl)c1 | inconclusive: 14.1 µM [activator, partial curve, poor fit] | –
O=C(Nc1ccc(N2CCOCC2)cc1)c1cc2ccccc2o1 | inconclusive: 2.24 µM [activator, full curve, poor fit] | –
CC(C)CCn1c(=S)[nH]c2ncccc2c1=O | – | inactive: 2.22%
CC(=O)C(C)Oc1ccc2c3c(c(=O)oc2c1)CCCC3 (configuration not stated) | active: 11.2 µM | –
c1cncc(CNc2cccc(-c3nc4ccccc4[nH]3)c2)c1 | inconclusive: 3.16 µM [activator, full curve, poor fit] | –
CCOC(=O)c1ccc(NC(=O)c2nn(CC)cc2Br)cc1 | inconclusive: 14.1 µM [activator, partial curve, poor fit] | –
CCOC(=O)c1sc(NC(=O)c2ccc(Cl)s2)cc1C | active: 4.47 µM | –
O=C(O)c1cccc(N/N=C/c2ccc(OC(F)(F)F)cc2)c1 | – | inconclusive: -63.4% [activator]
Cc1ccccc1OCC(=O)O/N=C(\N)c1ccncc1 | inconclusive: 11.2 µM [activator, partial curve, poor fit] | –
CCN(CCN(C)C)C(=O)C1CCN(S(=O)(=O)c2c(C)noc2/C=C/c2ccccc2F)CC1 | – | inactive: 1.48%
COc1ccc(-c2csc(Nc3ccccn3)n2)cc1 | – | inconclusive: -17.1% [activator]
CC(C)(C)c1ccc(C(=O)N2CCC(C(=O)NC3CC3)CC2)cc1 | inconclusive: 1.26 µM [activator, full curve, poor fit] | –
CCOC(=O)c1c(N)sc(C(=O)Nc2ccccc2F)c1C | inconclusive: 0.631 µM [activator, full curve, poor fit] | –
COc1ccc(CCC(=O)NCc2ccccc2OC)cc1 | – | inactive: 2.14%
Cc1ccccc1C(=O)NCCSc1ccccc1 | inconclusive: 2.51 µM [activator, full curve, poor fit] | –
O=C(/C=C/c1ccccc1)c1ccc2c(c1)OCCCCO2 | active: 2.24 µM | –
CC1(C)CC(=O)c2ccc(OCc3ccc([N+](=O)[O-])cc3)cc2O1 | inconclusive: 3.16 µM [activator, full curve, poor fit] | –
CCc1nnc(NC(=S)Nc2ccccc2)s1 | inconclusive: 6.31 µM [activator, partial curve, poor fit] | –
CCOCCc1nnc(NC(=O)C2CCN(C(=O)c3ccco3)CC2)s1 | – | inactive: -3.38%
CCc1ccc2nc(N)sc2c1 | inconclusive: 11.2 µM [activator, partial curve, poor fit] | –
O=C(Nc1nc2ccsc2c(=O)s1)c1ccc(F)cc1Cl | inconclusive: 0.631 µM [activator, full curve, poor fit] | –
CCOC(OCC)c1ccc(/C=C\c2nccc(N)n2)cc1 | active: 3.16 µM | –
Cc1ccc(Nc2nc(-c3ccccc3)c(CC(=O)O)s2)cc1 | inconclusive: 10 µM [activator, partial curve, poor fit] | –

Compound | Potency | activation
CCOc1cc(/C=N/Nc2cccc(C(=O)O)c2)ccc1OC(=O)c1ccccc1 | – | inconclusive: -86.6% [activator]
CCOC(=O)c1c(-c2ccc(C)o2)csc1NC(=S)NC(=O)c1ccc(F)cc1 | – | inactive: -39.3%
C/C(=N/OCc1ccc(Br)cc1)c1ccccn1 | active: 3.55 µM | –
COc1ccc(N2CCN(C(=O)c3cc(NS(=O)(=O)c4ccc(F)cc4)ccn3)CC2)cc1 | – | inactive: 5.5%
CCOC(=O)C(=O)Cc1nc(OCc2ccccc2)cc(OCc2ccccc2)n1 | – | inactive: -26.8%
COC(=O)Nc1ccc(OCc2ccccc2)cc1 | active: 12.6 µM | –
O=C(CCN1CCOCC1)c1ccc2c(c1)OCCO2 | – | inactive: -68.9%
C[C@H](CO)N1C[C@H](C)[C@@H](CN(C)C(=O)Nc2ccc(C(F)(F)F)cc2)Oc2c(NC(=O)Nc3ccccc3)cccc2C1=O | – | inactive: -69.6%
N/C(=N\OC(=O)c1ccc(Cl)c(Cl)c1)c1cccc(CSc2ccccn2)c1 | inconclusive: 10 µM [activator, partial curve, poor fit] | –
CCCOc1ccc(C(=O)Nc2ccc3c(c2)OCCO3)cc1 | inconclusive: 1.26 µM [activator, full curve, poor fit] | –
COc1ccc2oc(C(=O)NCc3ccco3)c(C)c2c1 | inconclusive: 15.8 µM [activator, partial curve, poor fit] | –
Cc1cc(C(=O)NC2CCCCC2)c(C)n1-c1ccc(F)cc1 | inconclusive: 1.78 µM [activator, full curve, poor fit] | –
O=C(NCc1ccccc1Cl)c1ccc(-c2ccccc2)cc1 | inconclusive: 11.2 µM [activator, partial curve, poor fit] | –
CCCc1ccc2oc(C(=O)N3CCC(COC)C3)c(C)c2c1 (configuration not stated) | inconclusive: 11.2 µM [activator, partial curve, poor fit] | –
O=C1S/C(=C\C=C\c2ccco2)C(=O)N1c1ccc(O)cc1 | inconclusive: 15.8 µM [activator, partial curve, poor fit] | –
CCN=C1S/C(=C\c2sccc2C)C(=O)N1CC | inconclusive: 8.91 µM [activator, partial curve, poor fit] | –
CN(C)c1ccc(C(=O)OCc2ccccc2)cc1 | inconclusive: 14.1 µM [activator, partial curve, poor fit] | –
O=C(c1nc2ccccc2[nH]1)c1ccccc1[N+](=O)[O-] | active: 11.2 µM | –
N#Cc1c(N)n(C2OC(CO)C(O)C2O)c2ncnc(N)c12 (configuration not stated) | – | inconclusive: -90.1% [activator]
Clc1ccc(OCc2nc(-c3ccncc3)no2)cc1 | active: 11.2 µM | –
CCOc1ccc(CCNC(=O)c2cc3c(=O)n(C)c4ccccc4c3n2C)cc1 | – | inactive: 4.71%
CCOc1ccc(-c2cc(C(=O)OC)[nH]n2)cc1 | inconclusive: 11.2 µM [activator, partial curve, poor fit] | –
CCN(CC)CCC(=O)N1c2ccccc2Sc2ccc(Cl)cc21 | – | inactive: -37.1%
Cc1cccn2cc(-c3cc4ccccc4oc3=O)nc12 | inconclusive: 0.562 µM [activator, full curve, poor fit] | –
Cc1ccc(NC(=O)Nc2ccc(F)cc2)cc1Cl | active: 2.82 µM | –
CC(C)NC(=O)c1ccc2c3n(nc2c1)-c1ccc(Cl)cc1CO3 | inconclusive: 2 µM [activator, full curve, poor fit] | –

Compound | Potency | activation
O=C(NCc1nnc(SCc2ccccc2)n1-c1ccc(F)cc1)C12CC3CC(CC(C3)C1)C2 | – | inactive: -36.8%
CN(C)CCNS(=O)(=O)c1ccc(Cl)cc1 | – | inactive: -21.5%
Nc1cc(C(=O)O)c(N)c2c1C(=O)c1ccccc1C2=O | – | inactive: -64%
Cc1sc2c(c1C)C(=O)NC(c1ccccc1F)N2 (configuration not stated) | inconclusive: 11.2 µM [activator, partial curve, poor fit] | –
COC(=O)Cc1c(OC)ccn(CCc2c[nH]c3ccccc23)c1=O | active: 2.24 µM | –
C=CCN=Cc1c(C)[nH]n(-c2ccccc2)c1=O | active: 12.6 µM | –
COC(=O)c1ccc(N/C=C/C(=O)c2ccccc2)cc1 | inconclusive: 1.26 µM [activator, full curve, poor fit] | –
CC(C)c1cc(C(=O)Nc2cccc(Cl)c2)no1 | active: 7.08 µM | –
CCCc1cc(C(=O)Nc2cc(C)ccc2O)no1 | active: 2.82 µM | –
Cc1ccc(NC(=O)Nc2cccnc2)cc1Cl | active: 12.6 µM | –
CCOc1ccc(NC(=O)c2oc3ccccc3c2NC(=O)Cc2ccc(OC)c(OC)c2)cc1 | active: 11.2 µM | –
CCOC(=O)c1nn(-c2ccc3c(c2)OCO3)cc1O | active: 3.16 µM | –
S=C(Nc1ccc(Br)cc1)NC1CCCC1 | inconclusive: 15.8 µM [activator, partial curve, poor fit] | –
COCC(C)Nc1ncnc2c1cnn2-c1ccc(Cl)cc1 (configuration not stated) | inconclusive: 0.631 µM [activator, full curve, poor fit] | –
O=C(Nc1ccc(F)cc1)C1CCN(c2ncnc3c2nc2n3CCCCC2)CC1 | – | inactive: 13.2%
O=C(N/N=C/c1cccs1)c1cc(-c2cccc3ccccc23)n[nH]1 | inconclusive: 12.6 µM [activator, single point] | –
CCC(C)(C)c1ccc(Oc2cccc(C(=O)O)c2)cc1 | – | inactive: 160%
CCCC(=O)Nc1ccc2c(c1)Cc1ccccc1-2 | inconclusive: 2.82 µM [activator, full curve, poor fit] | –
C/C(N)=C(/C#N)C(=O)CSc1nnc(-c2ccc(OC(F)F)cc2)o1 | inconclusive: 1.78 µM [activator, full curve, poor fit] and inconclusive: 1.12 µM [activator, full curve, poor fit] | –
O=C(/C=C/c1ccccc1)OCC(=O)c1ccc[nH]1 | – | inactive: 0.956%
Cc1ccc(S(=O)(=O)c2cn(CC(=O)Nc3ccc4c(c3)OCO4)c3ccc(F)cc3c2=O)cc1 | – | inactive: -27.4%
Fc1ccc(-c2cnn3c(-c4cccs4)ccnc23)cc1 | – | inactive: 0.962%
c1ccc(OCCOc2ncnc3sccc23)cc1 | active: 7.08 µM | –
Cc1cccc(-c2noc(-c3csc([C@@H]4C[C@H](O)[C@@H](CO)O4)n3)n2)c1 | inconclusive: 1 µM [activator, full curve, poor fit] | –
COc1cc(C=O)c(Br)cc1OCc1ccc(C)cc1 | inconclusive: 12.6 µM [activator, partial curve, poor fit] | –
